The numbers were not newly measured in paper PMC11006913, which cites them from elsewhere.

This is one part of the list.

One data set has as its target PROP1 R112Q (Homo sapiens) (UniProt O75360). To be noted: PBM; conditions not shown; double strand, one strand shown; scale: upbm affinity estimate (log intensity, higher = more binding, comparable within an allelic series).
For the sequence AATTCGTA [8-mer AATTCGTA], the binding signal was 11.9. With ATTGCTAA [8-mer ATTGCTAA], the binding signal was 12. In the case of CAATTGTG [8-mer CAATTGTG], the binding signal was 12.2. GATGAGTA [8-mer GATGAGTA]: the binding signal was 11.7. GCCAATCA [8-mer GCCAATCA]: the binding signal was 12.1. Take AGTATTAT [8-mer AGTATTAT]: the binding signal was 11.8.

As to CAATTGAG [8-mer CAATTGAG], the binding signal was 12.3. Take CCAATTGA [8-mer CCAATTGA]: the binding signal is 12.6.

As for CAATAGGA [8-mer CAATAGGA], the binding signal is 11.8. Take AATTGGCT [8-mer AATTGGCT]: the binding signal was 12.6. As for ATGCAATA [8-mer ATGCAATA], the binding signal was 11.8. On to ACCAATAG [8-mer ACCAATAG], for which the binding signal is 11.9. As for CCAATTCA [8-mer CCAATTCA], the binding signal was 12.1.

Take ACCAATTG [8-mer ACCAATTG]: the binding signal is 12.4.

CCAATTGC [8-mer CCAATTGC]: the binding signal is 12.1. Consider CAATTGGC [8-mer CAATTGGC], for which the binding signal is 12.4. With GCAATTGA [8-mer GCAATTGA], the binding signal is 12.2. Consider CCAATCAG [8-mer CCAATCAG], for which the binding signal was 12. ACCAATCA [8-mer ACCAATCA]: the binding signal is 12.3. CTAATAGC [8-mer CTAATAGC]: the binding signal is 12.1. In the case of AAATAAGT [8-mer AAATAAGT], the binding signal is 11.6.

In the case of TATTGGCA [8-mer TATTGGCA], the binding signal is 12. Turning to CAATTGCC [8-mer CAATTGCC], the binding signal is 12.2. Take AATTCAAC [8-mer AATTCAAC]: the binding signal is 11.8. As for GCCATTAA [8-mer GCCATTAA], the binding signal is 11.9. GGCCCACC [8-mer GGCCCACC]: the binding signal was 10.9. Take ACAATTGG [8-mer ACAATTGG]: the binding signal was 12.2.

Regarding AATCAATT [8-mer AATCAATT], the binding signal was 12.6. Turning to ATTACCAG [8-mer ATTACCAG], the binding signal was 12.

As for GATAATAC [8-mer GATAATAC], the binding signal is 11.9. On to AACAATTG [8-mer AACAATTG], for which the binding signal was 12.2.

Turning to ATTGATCA [8-mer ATTGATCA], the binding signal was 12.2.

For AAATGAGC [8-mer AAATGAGC], the binding signal was 11.8. On to AGAATTGG [8-mer AGAATTGG], for which the binding signal is 12. Consider AGCTTAAT [8-mer AGCTTAAT], for which the binding signal is 12.3. As for CGGCCAGC [8-mer CGGCCAGC], the binding signal was 10.9. As for TATGTAAA [8-mer TATGTAAA], the binding signal was 11.8. GATATTAA [8-mer GATATTAA]: the binding signal is 12.2.

For the sequence GTCATAAC [8-mer GTCATAAC], the binding signal is 11.7. Turning to TCTCATAA [8-mer TCTCATAA], the binding signal is 11.7.

A further data set concerns the target PROP1 R99Q (Homo sapiens) (UniProt O75360). To be noted: PBM; conditions not shown; double strand, one strand shown; scale: upbm affinity estimate (log intensity, higher = more binding, comparable within an allelic series).
Regarding GGCCCACC [8-mer GGCCCACC], the binding signal is 10.9.

Turning to AGCTTAAT [8-mer AGCTTAAT], the binding signal was 11.8.

Consider CGGCCAGC [8-mer CGGCCAGC], for which the binding signal was 10.8.
